Measurements published in PubChem BioAssay AID995 (National Center for Advancing Translational Sciences (NCATS), 2007).
In all, about 72,000 compounds went through this assay and about 710 (0.99%) were called active. Inconclusive results, whose numbers are uncertain, are shown with a selection of clear calls. Calls come from the whole dose curve; as a rule, active = well fitted inhibition curve with a large enough effect; inconclusive = small, poorly fitted or top-dose-only effect; inactive = no such curve, though single readings can be large or run the other way. Potencies of inconclusive entries are left out as doubtful fits.

Assay: qHTS Assay for Inhibitors of the ERK Signaling Pathway using a Homogeneous Screening Assay; note: nearly all actives have a fitted effect of over 55% in size
Settings: HEK293-V1b, vasopressin-stimulated pERK AlphaScreen; activity, negative = inhibition: at 57.5 µM (top of the series) unless noted
Method in brief: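 Phosphorylated ERK1/2 detected via AlphaScreen bead proximity in lysates of V1b-expressing HEK293 cells given 25 nM vasopressin for 5 min after 30 min compound exposure (37 °C). AC50 from Hill equation; basal DMSO 0%, vasopressin 100%.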
% is set by controls: 0 for no effect and ±100 for the full control effect; potency is the fitted concentration of half-maximal effect; tags give direction and shape of the fitted curve.

Compound | Potency | activity, negative = inhibition
CCn1cc(C(=O)NCc2cccnc2)c2cc(OC)c(OC)cc2c1=O | inconclusive [inhibitor, full curve, poor fit] | –
COc1ccc(-c2nn(-c3ccccc3)cc2C(=O)Nc2nc(CC(C)=O)ns2)cc1 | inconclusive [inhibitor, single point] | –
O=C(OCC(=O)N(C1CCCCC1)C1CCCCC1)c1ccncc1 | inconclusive [inhibitor, full curve] | –
Cc1cc(NC(=O)CSc2ccc(-c3nc4cc(C)c(C)cc4[nH]3)cn2)no1 | inactive | –
Cc1ccc(NC(=O)c2cccc(Cl)c2)nc1 | inactive | –
FC(F)(F)c1ccc(N2CCOCC2)c(Nc2nc3ccccc3n3cnnc23)c1 | inconclusive [inhibitor, partial curve] | –
CCN(CC(=O)Nc1ccc(OC)c(OC)c1)S(=O)(=O)c1ccc(C)cc1 | inconclusive [inhibitor, single point] | –
COc1cc2cc(CN(CCCO)S(=O)(=O)c3ccccc3)c(=O)[nH]c2cc1OC | inactive | –
Cn1c(=O)[nH]c(=O)c2c1nc(Sc1nc3ccccc3s1)n2Cc1ccccc1 | inconclusive [inhibitor, single point] | –
O=CNc1ncn[nH]1 | – | inactive: -2.42% [at 11.5 µM]
Cc1ncoc1C(=O)Nc1nccs1 | inactive | –
c1ccc2c(c1)[nH]c1c(N3CCOCC3)ncnc12 | inconclusive [inhibitor, single point] | –
CC(C)c1nc2oc3c(NCC4CCCO4)ncnc3c2c2c1COC(C)(C)C2 (centres undefined) | inconclusive [inhibitor, partial curve, poor fit] | –
O=C(c1cc(C(F)(F)F)cc(C(F)(F)F)c1)N1CCC2(CC1)CN(c1ccccn1)C2 | inconclusive [inhibitor, single point] | –
COc1cccc2c1C(=O)c1c(O)c3c(c(O)c1C2=O)C[C@@](O)(C(=O)CO)C[C@@H]3O[C@H]1C[C@H](N)[C@H](O)[C@H](C)O1 | inconclusive [inhibitor, partial curve] | –
O=C(c1cccc(-c2nnc(-c3ccccc3)o2)c1)N1CCCCC1 | inconclusive [inhibitor, partial curve] | –
COC(=O)[C@@]1(Cc2ccc(OC)cc2)[C@H]2c3cc(C(=O)N4CCCC4)n(Cc4ccc(Cl)c(C(F)(F)F)c4)c3C[C@H]2CN1C(=O)c1ccccc1 | inactive | –
O=C1c2ccccc2NC2(CCCCC2)N1c1ccc(O)cc1 | inconclusive [inhibitor, partial curve] | –
COc1cc(-c2oc3cc(O)ccc3c(=O)c2O)ccc1O | inconclusive [inhibitor, full curve, poor fit] | –
OC(COCc1cccs1)CN1CCN(c2ccccn2)CC1 (centres undefined) | inconclusive [inhibitor, partial curve] | –
Cc1cc(N2CCN(c3ccccc3)CC2)nc(-n2nc(C)cc2C)n1 | – | inconclusive: -32% [inhibitor]
CN1C[C@@H]2C(c3ccccc3)C3(c4ccc(C#N)cc4)CC2(C3)[C@H]1c1ccccc1 (some centres undefined) | inactive | –

Compound | Potency | activity, negative = inhibition
Nc1ccc(CCNc2ncnc3c2ncn3[C@@H]2O[C@@H](CO)[C@H](O)[C@@H]2O)cc1 | inconclusive [inhibitor, single point] | –
CC1(C)C(c2cccs2)=NC(c2ccccc2)N1O (centres undefined) | inconclusive [inhibitor, partial curve] | –
CCN1C(=O)[C@H]2[C@H]3[C@H](O)[C@H](O)C/C(=N/OC[C@@H](C)[C@H](OCc4ccccc4)C(C)C)[C@@H]3CC[C@@H]2C1=O | – | inactive: -9.77% [at 11.5 µM]
O=C(/C=C\c1ccc(O)c(O)c1)OCCc1ccccc1 | inconclusive [inhibitor, single point] | –
Cc1ccc(C(=O)CSC2=NC(N)=C(C#N)C3(CCCCC3)C2C(N)=O)cc1 (centres undefined) | inconclusive [inhibitor, single point] | –
COc1ccc(N/C=C2\CCOC2=O)cc1 | inconclusive [inhibitor, full curve, poor fit] | –
CCN(CC)S(=O)(=O)c1cc(C(=O)Nc2ccccc2C(=O)O)ccc1OC | inactive | –
O=C(CCN1CCCCCC1)Nc1ccc(F)c(F)c1 | inconclusive [inhibitor, partial curve] | –
O=C(CCCOc1ccc(Cl)cc1Cl)NCCCO | inconclusive [inhibitor, single point] | –
O=C(Nc1ccc(-c2nc3ccccc3[nH]2)cc1)C1CCCO1 (centres undefined) | – | inconclusive: -38.8% [inhibitor]
c1ccc2[nH]c(SCc3ccc(-c4nnco4)cc3)nc2c1 | inconclusive [inhibitor, partial curve] | –
c1ccc(-c2oc3ncnc(NCCN4CCOCC4)c3c2-c2ccccc2)cc1 | inconclusive [inhibitor, partial curve] | –
O=c1cnc2cnc(Oc3ccccc3)nc2n1CCc1ccccc1 | inactive | –
CC(=O)OC[C@@H]1O[C@H](C/C=N\OC[C@@H](O)COCc2ccco2)C=C[C@@H]1OC(C)=O | – | inactive: 6.42% [at 11.5 µM]
COC(=O)CSc1nc2ccccc2o1 | inactive | –
CSC1=C(C#N)C(c2cccs2)CC(=O)N1C (centres undefined) | inactive | –
Cn1cccc1Cc1nnc(SCC(=O)Nc2ccc3c(c2)OCCO3)n1CCc1ccccc1 | inconclusive [inhibitor, partial curve] | –
COc1cccc(-c2cncnc2NCc2cccs2)c1 | active: 10 µM | –
COC(=O)c1[nH]c(C)c(/C(O)=C2\C(=O)C(=O)N(CCN(C)C)C2c2ccc(C)o2)c1C (centres undefined) | inconclusive [inhibitor, single point] | –
COc1cccc(-c2cncnc2NCc2ccc(OC)cc2OC)c1 | inactive | –
CC(OCC(O)CN(C)CCOc1ccccc1)c1ccc(Cl)cc1 (centres undefined) | inconclusive [inhibitor, single point] | –
COc1ccc(OCC(=O)N2CCN(c3nnc(-c4ccccc4)c4ccccc34)CC2)cc1 | inconclusive [inhibitor, partial curve] | –
